According to PubChem BioAssay AID1347430 (National Center for Advancing Translational Sciences (NCATS), 2020):
About 130 (0.14%) of roughly 91,000 compounds were called active. Inconclusive means that the source gave no clear call. Such entries were picked first, then a sample of the others. Calls come from the whole dose curve; as a rule, active = well fitted inhibition curve with a large enough effect; inconclusive = small, poorly fitted or top-dose-only effect; inactive = flat fitted curve, though single readings scatter. Potencies beside an inconclusive call are fits to weak or partial responses and may not hold up.

These compounds were tested on Uracil-DNA glycosylase (assay: Primary qHTS assay for inhibitors of Activation Induced Cytidine Deaminase (AID): UDG Counterscreen signal). Settings: FRET deamination/UDG coupled assay, UDG read, 4 h; activity change, negative = inhibition: at 115 µM (top of the series).
% is set by controls: 0 for no effect and ±100 for the full control effect; potency is the fitted concentration of half-maximal effect; tags give direction and shape of the fitted curve.
Note: nearly all actives have a fitted effect of over 65% in size.

Structure (SMILES) | Potency | activity change, negative = inhibition
COc1ccc(CNc2nc3ccccc3c3nc(-c4ccccc4)nn23)cc1 | inconclusive: 89.1 µM [inhibitor, partial curve, poor fit] | –
Cc1c(Cl)cccc1Nc1nc(N)nc(CSc2nc3ccccc3s2)n1 | inconclusive: 79.4 µM [inhibitor, partial curve, poor fit] | –
CCOC(=O)c1c(C)[nH]c(C)c1S(=O)(=O)N1CCC(C(=O)N2CCN(c3cc(C)ccc3C)CC2)CC1 | inconclusive: 89.1 µM [inhibitor, partial curve, poor fit] | –
CCc1cc(C(c2ccc(OC)cc2)N2CCOCC2)c(NC(=O)c2ccco2)s1 (centres undefined) | – | inactive: -4.65%
Cc1ccc(Cn2ccnc2SCC(=O)Nc2ccc3c(c2)OCO3)cc1 | inconclusive: 100 µM [inhibitor, single point] | –
O=C(O)c1ccccc1NS(=O)(=O)c1ccc(N/N=C/c2cccs2)c([N+](=O)[O-])c1 | inconclusive: 100 µM [inhibitor, partial curve, poor fit] | –
Cc1ccc(NC(=O)c2c(C)oc3ncnc(N4CCCCC4)c23)cc1Cl | inconclusive: 100 µM [inhibitor, single point] | –
O=C(c1cccn2c(=O)c3cc(Cl)ccc3nc12)N1CCN(c2ccccc2F)CC1 | active: 79.4 µM | –
O=C1CC(C(=O)Nc2ccccc2C(F)(F)F)n2nc(SCc3ccccc3)nc2N1 (centres undefined) | inconclusive: 100 µM [inhibitor, single point] | –
Cc1c(Cl)cccc1NC(=O)c1ncoc1-c1ccco1 | inconclusive: 89.1 µM [inhibitor, partial curve, poor fit] | –
CC(=O)N1CCc2cc(S(=O)(=O)NC(CC(C)C)C(=O)Nc3cc(C)cc(C)c3)ccc21 (centres undefined) | inconclusive: 89.1 µM [inhibitor, single point] | –
N#Cc1cccc(NCc2cc(Br)ccc2F)c1 | – | inactive: -12.6%
Cc1cc(C)c2sc(N3CCN(C(=O)c4ccc(N(C)C)cc4)CC3)nc2c1 | inconclusive: 100 µM [inhibitor, single point] | –
O=C(CSc1ncnc2nc(N3CCOCC3)sc12)Nc1cc(C(F)(F)F)ccc1Cl | – | inactive: -1.52%
COc1ccccc1C(=O)Nc1ccc(C(=O)OCc2cc(=O)n3nc(C4CC4)sc3n2)cc1 | – | inactive: -9.85%
O=c1cc(CSc2nnnn2-c2ccccc2)c2ccc(O)cc2o1 | – | inactive: 0.902%
COc1ccc(NC(=O)c2ccc(C3Nc4ccccc4S(=O)(=O)N3)cc2)cc1OC (centres undefined) | – | inactive: -1.24%
CCCCN(C)C(=O)CSc1nc2ccccc2nc1Cc1ccc(C)cc1 | inconclusive: 79.4 µM [inhibitor, partial curve, poor fit] | –
COc1ccccc1CNC(=O)C(=O)NCC(c1cccs1)S(=O)(=O)c1cccs1 (centres undefined) | inconclusive: 89.1 µM [inhibitor, partial curve, poor fit] | –
Cc1ccc(-c2noc(CSc3nnc(C)n3-c3ccc(C)c(C)c3)n2)cc1 | inconclusive: 79.4 µM [inhibitor, partial curve, poor fit] | –

Structure (SMILES) | Potency | activity change, negative = inhibition
COc1ccccc1CNC(=O)COCc1cc(-c2ccc3c(c2)OCO3)on1 | inconclusive: 89.1 µM [inhibitor, single point] | –
CN(Cc1ccccc1)C(=O)COC(=O)c1cc(=O)c2ccccc2o1 | inconclusive: 89.1 µM [inhibitor, single point] | –
CC(C)c1ccc(NC(=O)CCS(=O)(=O)c2ccc3c(c2)CC(=O)N3C)cc1 | inconclusive: 79.4 µM [inhibitor, partial curve, poor fit] | –
Cc1ccc(CNC(=O)c2ccccc2NC(=O)Cn2cnc3c2c(=O)n(C)c(=O)n3C)cc1 | inconclusive: 89.1 µM [inhibitor, single point] | –
CC(C)(C)CC(=O)N1CCN(C2CCCCC2)CC1 | – | inactive: -7.5%
Cc1nc2sccn2c(=O)c1S(=O)(=O)Nc1cc(C(F)(F)F)ccc1Cl | inconclusive: 89.1 µM [inhibitor, single point] | –
Cc1ccc(N2CCN(C(=O)c3c(C)oc4ncnc(N5CCCCC5)c34)CC2)c(C)c1 | inconclusive: 89.1 µM [inhibitor, partial curve, poor fit] | –
Cc1sc2c(c1C)c(=O)n(Cc1ccccc1)c(=O)n2CC(=O)N(C)c1ccccc1 | inconclusive: 89.1 µM [inhibitor, partial curve, poor fit] | –
COc1ccc(S(=O)(=O)N(CC(=O)Nc2cc(C)cc(C)c2)c2ccc(Cl)cc2)cc1 | – | inactive: -0.841%
CCc1ccccc1N1CC(c2nc3ccccc3n2CCOc2ccc(Cl)c(C)c2)CC1=O (centres undefined) | inconclusive: 89.1 µM [inhibitor, partial curve, poor fit] | –
CCOC(=O)c1c(C)oc2nc(C)nc(NCC3CCN(Cc4ccc(F)cc4)CC3)c12 | inconclusive: 100 µM [inhibitor, partial curve, poor fit] | –
Cc1ccc(NC(=O)CCS(=O)(=O)c2ccc3nc(C)sc3c2)c(C)c1 | inconclusive: 100 µM [inhibitor, single point] | –
Cc1ccc(/C=[N+](\[O-])c2ccccc2C)cc1 | inconclusive: 14.1 µM [inhibitor, partial curve, poor fit] | –
Cc1ccc(C)c(N2CCN(CCCNC(=O)c3ccc4nc(N5CCC(C)CC5)sc4c3)CC2)c1 | inconclusive: 20 µM [inhibitor, full curve] | –
Nc1nc(N2CCN(Cc3ccccc3Cl)CC2)c2[nH]cnc2n1 | – | inactive: 2.53%
O=c1c2cccnc2n(Cc2cccc(F)c2)c(=O)n1Cc1ccc(F)cc1 | inconclusive: 89.1 µM [inhibitor, partial curve, poor fit] | –
COc1ccc2[nH]cc(CCNC(=O)Nc3cc(C)cc(C)c3)c2c1 | inconclusive: 39.8 µM [inhibitor, partial curve, poor fit] | –
O=C1Cc2cc(S(=O)(=O)Nc3ccc(OC(F)(F)F)cc3)cc3c2N1CCC3 | inconclusive: 89.1 µM [inhibitor, partial curve, poor fit] | –
CC(C)Nc1nc(-c2ccccc2O)nc2ccccc12 | inconclusive: 89.1 µM [inhibitor, single point] | –
